# Experimental data from the supplement of paper PMC4604168 (melanoma cell lines).
# Some of the results follow. Most values come without repeats; read them as rough.
# Columns and labels:
# Assay in all cases: cell count relative to DMSO control; melanoma cells; higher = more viable cells
# Settings in all cases: library dose: low library concentration; 72 h; first compound 0.4 µM
# MZ2-MEL = test system: MZ2-MEL
# MeWo = test system: MeWo
# RPMI7951 = test system: RPMI7951
# RVH-421 = test system: RVH-421
# SkMel28 = test system: SkMel28
# SkMel2 = test system: SkMel2
# SkMel30 = test system: SkMel30
# SkMel5 = test system: SkMel5
# UACC257 = test system: UACC257
# UACC62 = test system: UACC62
# 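Note: cell number obtained by counting DAPI-stained nuclei in high-throughput microscope images with image analysis software, screen run in 1,536-well plates.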
Structure (SMILES),cell count (MZ2-MEL),cell count (MeWo),cell count (RPMI7951),cell count (RVH-421),cell count (SkMel28),cell count (SkMel2),cell count (SkMel30),cell count (SkMel5),cell count (UACC257),cell count (UACC62)
CCCCCCCCCCCCCCCCCCOP(=O)([O-])OC1CC[N+](C)(C)CC1 [Perifosine] + Cc1cc(N2CCOCC2)cc2[nH]c(-c3c(NC[C@@H](O)c4cccc(Cl)c4)cc[nH]c3=O)nc12 [BMS536924] (partner dose 0.2 µM),102%,90.9%,45.4%,100%,84.2%,89.5%,74.6%,92.6%,118%,86.1%
CCCCCCCCCCCCCCCCCCOP(=O)([O-])OC1CC[N+](C)(C)CC1 [Perifosine] + CO[C@@H]1[C@H](N(C)C(=O)c2ccccc2)C[C@H]2O[C@]1(C)n1c3ccccc3c3c4c(c5c6ccccc6n2c5c31)C(=O)NC4 [Midostaurin] (partner dose 0.08 µM),91.5%,89.5%,37.7%,91%,65%,80.5%,88.4%,108%,67.1%,28.7%
CCCCCCCCCCCCCCCCCCOP(=O)([O-])OC1CC[N+](C)(C)CC1 [Perifosine] + COc1cc2ncnc(Nc3ccc(Oc4ccccc4)cc3)c2cc1OC [SrcI1] (partner dose 2 µM),99.2%,99.3%,45.1%,94.5%,71.2%,96.7%,90.2%,90.2%,89.3%,97.8%
Cn1sc(=O)n(Cc2ccccc2)c1=O + CN(NC(=O)CC(=O)NN(C)C(=S)c1ccccc1)C(=S)c1ccccc1 [STA4783] (partner dose 0.006 µM),101%,91.8%,96.8%,76.2%,92.6%,97.4%,93.9%,100%,94%,61.5%
CCCCCCCCCCCCCCCCCCOP(=O)([O-])OC1CC[N+](C)(C)CC1 [Perifosine] + NCC(=O)Nc1ccc(-n2nc(C(F)(F)F)cc2-c2ccc3c(ccc4ccccc43)c2)cc1 [OSU03012] (partner dose 1 µM),90.8%,55.6%,97%,89.7%,77.5%,77.4%,54.2%,84.3%,121%,104%
CCCCCCCCCCCCCCCCCCOP(=O)([O-])OC1CC[N+](C)(C)CC1 [Perifosine] + O=C(CCCCCCC(=O)Nc1ccccc1)NO [vorinostat] (partner dose 0.08 µM),108%,94.7%,39.6%,98.3%,78.1%,93.2%,84.4%,91.1%,91.6%,70%
C[C@@H](N)c1ccc(C(=O)Nc2ccnc3[nH]ccc23)cc1 + COc1cc(Nc2ncc(F)c(Nc3ccc4c(n3)NC(=O)C(C)(C)O4)n2)cc(OC)c1OC [Tamatinib] (partner dose 0.4 µM),89.5%,70.2%,75.7%,79.3%,70.9%,91.3%,120%,79.7%,56.4%,68.8%
Cn1sc(=O)n(Cc2ccccc2)c1=O + O=C(Nc1ccccc1)c1cc([N+](=O)[O-])ccc1Cl [GW9662] (partner dose 2 µM),100%,100%,108%,107%,90.7%,104%,96.3%,108%,89.2%,91.5%
C[C@@H](N)c1ccc(C(=O)Nc2ccnc3[nH]ccc23)cc1 + O=C(Nc1cccc(Cl)c1)Nc1ncc(CCNc2ncnc3ccsc23)s1 [SNS314] (partner dose 0.0008 µM),85.4%,80.9%,90.4%,69.8%,108%,96.9%,111%,97.2%,71.9%,84.5%
Cn1sc(=O)n(Cc2ccccc2)c1=O + COc1cc(N2CCC(N3CCN(C)CC3)CC2)ccc1Nc1ncc(Cl)c(Nc2ccccc2S(=O)(=O)C(C)C)n1 [NVP-TAE684] (partner dose 0.08 µM),113%,98.2%,90.4%,102%,97.2%,101%,94.8%,92.1%,92.3%,93.5%
C[C@@H](N)c1ccc(C(=O)Nc2ccnc3[nH]ccc23)cc1 + CCN(CC)CCCCNc1ncc2cc(-c3cc(OC)cc(OC)c3)c(NC(=O)NC(C)(C)C)nc2n1 [PD173074] (partner dose 0.1 µM),68.1%,95%,65.2%,88.3%,73%,100%,91.7%,82.5%,74.6%,83.3%
CCCCCCCCCCCCCCCCCCOP(=O)([O-])OC1CC[N+](C)(C)CC1 [Perifosine] + O=c1cc(-c2cccc3c2Sc2ccccc2S3)oc(N2CCOCC2)c1 [KU55933] (partner dose 1 µM),105%,97%,51.6%,119%,84.1%,98.7%,87.5%,97%,96.4%,98.1%
Cn1sc(=O)n(Cc2ccccc2)c1=O + CC(C)(C)c1cnc(CSc2cnc(NC(=O)C3CCNCC3)s2)o1 [SNS-032] (partner dose 0.01 µM),93.9%,100%,87.7%,82.3%,78.1%,100%,94%,91.4%,81.7%,78.7%
C[C@@H](N)c1ccc(C(=O)Nc2ccnc3[nH]ccc23)cc1 + COc1ccc2c(c1)CCC1C2CCC2(C)C(NCCCCCCN3C(=O)C=CC3=O)CCC12 [U73122] (partner dose 0.4 µM),81.2%,86.9%,66.2%,67.4%,77%,100%,82.9%,95.8%,78.8%,79.3%
CCCCCCCCCCCCCCCCCCOP(=O)([O-])OC1CC[N+](C)(C)CC1 [Perifosine] + Cn1cc(/C=C2\C(=O)Nc3cccnc32)c2ccccc21 [GW441756] (partner dose 0.4 µM),95.5%,105%,84.5%,122%,87.4%,113%,86.5%,86.9%,76.9%,96.2%
C[C@@H](N)c1ccc(C(=O)Nc2ccnc3[nH]ccc23)cc1 + Oc1nc(-c2ccc(C(F)(F)F)cc2)nc2c1CSCC2 [XAV939] (partner dose 2 µM),69.9%,75.6%,67.1%,63.4%,77.2%,92.8%,117%,84.5%,65.4%,85.5%
Cn1sc(=O)n(Cc2ccccc2)c1=O + COc1cc(Nc2ncc(F)c(Nc3ccc4c(n3)NC(=O)C(C)(C)O4)n2)cc(OC)c1OC [Tamatinib] (partner dose 0.4 µM),88.4%,89.9%,91%,108%,88.8%,98.8%,85.3%,104%,97%,78.1%
Cn1sc(=O)n(Cc2ccccc2)c1=O + Cc1cc(N2CCOCC2)cc2[nH]c(-c3c(NC[C@@H](O)c4cccc(Cl)c4)cc[nH]c3=O)nc12 [BMS536924] (partner dose 0.2 µM),94.2%,103%,106%,85.2%,88.5%,96.3%,104%,91.3%,75.5%,87.3%
Cn1sc(=O)n(Cc2ccccc2)c1=O + COC(=O)c1sccc1S(=O)(=O)Nc1ccc(Nc2ccccc2)cc1OC [GSK0660] (partner dose 1 µM),89.3%,101%,85.1%,95.1%,97.9%,98.8%,97%,100%,93.5%,97%
C[C@@H](N)c1ccc(C(=O)Nc2ccnc3[nH]ccc23)cc1 + COc1cc(N2CCC(N3CCN(C)CC3)CC2)ccc1Nc1ncc(Cl)c(Nc2ccccc2S(=O)(=O)C(C)C)n1 [NVP-TAE684] (partner dose 0.08 µM),81.6%,85.3%,80.5%,131%,68.5%,109%,116%,79.1%,77.9%,99.7%
CCCCCCCCCCCCCCCCCCOP(=O)([O-])OC1CC[N+](C)(C)CC1 [Perifosine] + COC(=O)c1sccc1S(=O)(=O)Nc1ccc(Nc2ccccc2)cc1OC [GSK0660] (partner dose 1 µM),99.5%,101%,92.3%,108%,87.1%,101%,69.3%,91.6%,99.9%,85.9%
C[C@@H](N)c1ccc(C(=O)Nc2ccnc3[nH]ccc23)cc1 + COC(=O)c1sccc1S(=O)(=O)Nc1ccc(Nc2ccccc2)cc1OC [GSK0660] (partner dose 1 µM),78.3%,99.5%,78%,64%,82.3%,109%,107%,78.8%,83.2%,78%
CCCCCCCCCCCCCCCCCCOP(=O)([O-])OC1CC[N+](C)(C)CC1 [Perifosine] + N#Cc1c(O)c2c(-c3ccc(-c4ccccc4O)cc3)csc2[nH]c1=O [A769662] (partner dose 2 µM),99.8%,97.6%,82.2%,102%,97%,105%,77.1%,95.5%,115%,85.4%
Cn1sc(=O)n(Cc2ccccc2)c1=O + COc1cc2c(Oc3ccc4[nH]c(C)cc4c3F)ncnc2cc1OCCCN1CCCC1 [cediranib] (partner dose 0.4 µM),106%,104%,113%,97.7%,90.5%,95.4%,74.6%,114%,73.5%,101%
Cn1sc(=O)n(Cc2ccccc2)c1=O + O=c1cc(-c2cccc3c2Sc2ccccc2S3)oc(N2CCOCC2)c1 [KU55933] (partner dose 1 µM),107%,118%,89.8%,126%,98%,95.8%,111%,93.6%,98.9%,83.1%
CCCCCCCCCCCCCCCCCCOP(=O)([O-])OC1CC[N+](C)(C)CC1 [Perifosine] + O=C(O)c1ccc(-c2c[nH]c3ncc(-c4ccccc4)cc23)cc1C1CCCC1 [GSK650394] (partner dose 0.16 µM),106%,97.9%,64.1%,89.7%,83.5%,93.5%,107%,95.5%,64.9%,87.6%
Cn1sc(=O)n(Cc2ccccc2)c1=O + OCCn1cc(-c2cnc3nnn(Cc4ccc5ncccc5c4)c3n2)cn1 [PF04217903] (partner dose 1 µM),108%,104%,106%,112%,95.8%,94.7%,113%,104%,114%,109%
